{"source": "PubChem BioAssay (Tox21)", "note": "Where “and” joins values, the source holds several entries; their conditions need not be identical. Equal values may be shown once. Inconclusive results, whose numbers are uncertain, are shown with a selection of clear calls. Where the call is inconclusive, the potency comes from a doubtful curve fit. Some compounds were tested as several samples or in several runs, with calls that do not always agree. Calls of active or inactive are those of the source. Calls follow the shape of the dose curve; as a rule, active = well fitted cell-killing curve with a large enough effect in the repeat runs; inconclusive = weak or mixed curves, or effect the other way; inactive = no such curve, though single readings can be large or run the other way. % is scaled to controls: 0 for no effect and ±100 for the full control effect; potency is read from the fitted curve at half-maximal effect; tags tell the direction and shape of the fitted curve."}
{"assay": "qHTS assay to identify small molecule agonists of the vitamin D receptor (VDR) signaling pathway - cell viability counter screen (AID 743224); also: nearly all actives have a fitted effect of over 50% in size", "settings": "VDR-bla HEK293T viability, CellTiter-Glo luminescence, 16 h; activity change, negative = cytotoxicity: at 62.6 µM (top of the series)", "from_the_text": "U.S. Tox21 Program National Center for Advancing Translational Sciences [NCATS] NIH Chemical Genomics Center [NCGC] U.S. Environmental Protection Agency [EPA] National Institutes of Environmental Health Sciences [NIEHS] National Toxicology Program [NTP] U.S. Food and Drug Administration [FDA] Tox21 Assay Overview: The vitamin D receptor (VDR), a member of nuclear hormone receptor superfamily, plays a critical role in calcium homeostasis and bone metabolism. It is also involved in cell differentiation and growth, and thrombogenicity. […] The cytotoxicity of the Tox21 compound library against the VDR-bla cell line was tested in parallel by measuring the cell viability using CellTiter-Glo assay (Promega, Madison, WI) in the same wells.\nTox21 Assay Protocol Summary: VDR-bla cells were dispensed at 2,000 cells/6 uL/well into black wall/clear-bottom 1536-well plates using a Multidrop Combi (Thermo Fisher Scientific, Waltham, MA) dispenser. After the assay plates were incubated at a 37C and 5% CO2 for 4 h, 23 nL of compounds dissolved in DMSO, positive controls or DMSO only was transferred to the assay plate by a Pintool station (Kalypsys, San Diego, CA). The plates were incubated at 37C and 5% CO2 for 16 h. After 1 uL of LiveBLAzerTM B/G FRET substrate was added using a Bioraptr Flying Reagent Dispenser (FRD) workstation (Beckman Coulter, Indianapolis, IN, USA), the plates were incubated at room temperature for 2 h, and fluorescence intensity was measured by an Envision plate reader (PerkinElmer, Shelton, CT). For cell viability readout that measures cytotoxicity, 3 ul/well of CellTiter-Glo reagent was added into the assay plates using a FRD. After 30 min incubation at room temperature, the luminescence intensity in the plates was measured using a ViewLux (PerkinElmer) plate reader."}
{"smiles": "CN(C)C(=N)N=C(N)N", "Potency": "inconclusive: 0.119 µM [cytotoxic, single point]"}
{"smiles": "Cc1cccc(N(C)C(=S)Oc2ccc3ccccc3c2)c1", "Potency": "inactive"}
{"smiles": "COc1ccc2cc3[n+](cc2c1OC)CCc1cc2c(cc1-3)OCO2", "Potency": "inconclusive: 17.5 µM [cytotoxic, full curve]"}
{"smiles": "Cc1c(C)c2c(c(C)c1OC(=O)CCC(=O)OCCO)CC[C@@](C)(CCC[C@H](C)CCC[C@H](C)CCCC(C)C)O2", "Potency": "active: 26.6 µM"}
{"smiles": "CCCCCCOc1ccc(O)cc1", "Potency": "inconclusive: 61.7 µM [cytotoxic, single point]"}
{"smiles": "CCCCC(CC)COP(=O)(O)OCC(CC)CCCC", "note": "(stereo not given)", "Potency": "inconclusive: 61.6 µM [cytotoxic, single point]"}
{"smiles": "CCCOC(=O)c1cc(O)c(O)c(O)c1", "Potency": "inconclusive: 43.4 µM [cytotoxic, partial curve]"}
{"smiles": "C[C@H](CCC(=O)O)[C@H]1CC[C@H]2[C@@H]3CC[C@@H]4C[C@H](O)CC[C@]4(C)[C@H]3C[C@H](O)[C@]12C", "Potency": "inconclusive: 55.1 µM [cytotoxic, single point]"}
{"smiles": "OCCN1CCN(CCCN2c3ccccc3Sc3ccc(C(F)(F)F)cc32)CC1", "Potency": "inconclusive: 13.3 µM [cytotoxic, partial curve]"}
{"smiles": "CC1(C)O[C@H]2CC(=O)OC[C@]23[C@H]2CC[C@@]4(C)[C@H](c5ccoc5)OC(=O)[C@H]5O[C@]54[C@]2(C)C(=O)C[C@@H]13", "Potency": "inactive"}
{"smiles": "CN(C)c1ccc2nc3ccc(=[N+](C)C)cc-3sc2c1", "Potency": "inconclusive: 9.39 µM [cytotoxic, partial curve] and active: 49 µM and active: 2.98 µM"}
{"smiles": "CCC(=O)OCCc1ccccc1", "Potency": "active: 41.8 µM"}
{"smiles": "[Cl][Au]([Cl])[Cl]", "Potency": "active: 3.89 µM"}
{"smiles": "O=Cc1cc(O)ccc1Br", "Potency": "inactive"}
{"smiles": "C=C[C@](C)(O)CC[C@@H]1[C@@]2(C)CCCC(C)(C)[C@@H]2CC[C@@]1(C)O", "Potency": "active: 43.6 µM"}
{"smiles": "Cc1cc(N)c2cc(NC(=O)Nc3ccc4nc(C)cc(N)c4c3)ccc2n1", "Potency": "inconclusive: 33.5 µM [cytotoxic]"}
{"smiles": "CC1=CCC2C(C1)C2(C)C", "note": "(stereo not given)", "Potency": "inactive"}
{"smiles": "O=CCCCC=O", "Potency": "inactive"}
{"smiles": "CSc1ccc(/C=C2/C(C)=C(CC(=O)O)c3cc(F)ccc32)cc1", "activity change, negative = cytotoxicity": "inconclusive: 5.16%"}
{"smiles": "CCCCCCCC/C=C/CCCOC(C)=O", "Potency": "inconclusive: 49 µM [cytotoxic, single point]"}
{"smiles": "CC(=O)O[C@@H]1CC2CCC1(C)C2(C)C", "note": "(stereo not given in full)", "Potency": "inactive"}
{"smiles": "C/C=C(\\C)C(=O)OCc1ccccc1", "Potency": "inconclusive: 61.7 µM [cytotoxic, partial curve, poor fit]"}
{"smiles": "CC(C)CCCC(C)CCO", "note": "(stereo not given)", "Potency": "inconclusive: 61.6 µM [cytotoxic, single point]"}
{"smiles": "CCCCCCCCCCCCOC(=O)c1ccc(O)cc1", "Potency": "inconclusive: 24.7 µM [cytotoxic, partial curve, poor fit]"}
{"smiles": "C[C@@H]1CC[C@H]2C(C)(C)[C@H]3C[C@@]12CC[C@@]3(C)O", "Potency": "inconclusive: 61.6 µM [cytotoxic, single point]"}
{"smiles": "Nc1nc(N)c2nc(CNc3ccc(C(=O)N[C@@H](CCC(=O)O)C(=O)O)cc3)cnc2n1", "Potency": "active: 0.0288 µM"}
{"smiles": "C=CC(=O)OCCCCCCOC(=O)C=C", "Potency": "active: 44.2 µM"}
{"smiles": "CCCCCCCCCCCC[N+](C)(C)Cc1ccccc1", "Potency": "active: 27 µM and active: 29.9 µM and active: 13.3 µM"}
{"smiles": "COc1cc(C(C)(C)C)c(O)c(C(C)(C)C)c1", "Potency": "inconclusive: 54.9 µM [cytotoxic, single point]"}
{"smiles": "Clc1ccc2c(c1)CCc1cccnc1C2=C1CCNCC1", "Potency": "inconclusive: 26.6 µM [cytotoxic, partial curve]"}
{"smiles": "c1cc(C(c2ccc(OCC3CO3)cc2)c2ccc(OCC3CO3)cc2)ccc1OCC1CO1", "note": "(stereo not given)", "Potency": "inconclusive: 49 µM [cytotoxic]"}
{"smiles": "CCc1oc2ccccc2c1C(=O)c1cc(I)c(O)c(I)c1", "Potency": "inconclusive: 23.7 µM [cytotoxic, partial curve]"}
{"smiles": "CCCCCCCCCCCCCCCC[N+](C)(C)CC", "Potency": "active: 21.9 µM and inconclusive: 21.1 µM [cytotoxic, partial curve]"}
{"smiles": "CC(COc1ccccc1)N(CCCl)Cc1ccccc1", "note": "(stereo not given)", "Potency": "inconclusive: 49.5 µM [cytotoxic, single point]"}
{"smiles": "Nc1ccc2cc3ccc(N)cc3nc2c1", "Potency": "active: 24.5 µM"}
{"smiles": "CC1(C)[C@H](C(=O)O)N2C(=O)C[C@H]2S1(=O)=O", "Potency": "inactive"}
{"smiles": "CC(C)CC(C)(C)C", "Potency": "inconclusive: 7.18 µM [rising, partial curve, poor fit]"}
{"smiles": "C/C(=C(/OCCOc1ccc(Cl)cc1)c1ccc(Cl)cc1Cl)n1ccnc1", "Potency": "inconclusive: 33.5 µM [cytotoxic, partial curve, poor fit]"}
{"smiles": "COC(=O)[C@H]1[C@H]2C[C@@H]3c4[nH]c5cc(OC)ccc5c4CCN3C[C@H]2C[C@@H](OC(=O)c2cc(OC)c(OC)c(OC)c2)[C@@H]1OC", "Potency": "inconclusive: 20.1 µM [cytotoxic, partial curve] and inconclusive: 26.6 µM [cytotoxic, partial curve]"}
{"smiles": "O=C(N/N=C/c1ccc([N+](=O)[O-])o1)c1ccc(O)cc1", "Potency": "inconclusive: 33.5 µM [cytotoxic, partial curve, poor fit]"}
